# The whole screen tested about 310,000 compounds, of which about 2,200 (0.71%) showed an effect of 50% or more. Effects have a minus sign here. The list shows a part of the results.
# Molecular target: human ether-à-go-go-related gene (hERG) potassium channel (human, UniProt Q12809)
# Test: primary screen, population patch clamp on CHO cells stably expressing hERG
# Chain of human ether-à-go-go-related gene (hERG) potassium channel (Q12809 whole entry, looked up): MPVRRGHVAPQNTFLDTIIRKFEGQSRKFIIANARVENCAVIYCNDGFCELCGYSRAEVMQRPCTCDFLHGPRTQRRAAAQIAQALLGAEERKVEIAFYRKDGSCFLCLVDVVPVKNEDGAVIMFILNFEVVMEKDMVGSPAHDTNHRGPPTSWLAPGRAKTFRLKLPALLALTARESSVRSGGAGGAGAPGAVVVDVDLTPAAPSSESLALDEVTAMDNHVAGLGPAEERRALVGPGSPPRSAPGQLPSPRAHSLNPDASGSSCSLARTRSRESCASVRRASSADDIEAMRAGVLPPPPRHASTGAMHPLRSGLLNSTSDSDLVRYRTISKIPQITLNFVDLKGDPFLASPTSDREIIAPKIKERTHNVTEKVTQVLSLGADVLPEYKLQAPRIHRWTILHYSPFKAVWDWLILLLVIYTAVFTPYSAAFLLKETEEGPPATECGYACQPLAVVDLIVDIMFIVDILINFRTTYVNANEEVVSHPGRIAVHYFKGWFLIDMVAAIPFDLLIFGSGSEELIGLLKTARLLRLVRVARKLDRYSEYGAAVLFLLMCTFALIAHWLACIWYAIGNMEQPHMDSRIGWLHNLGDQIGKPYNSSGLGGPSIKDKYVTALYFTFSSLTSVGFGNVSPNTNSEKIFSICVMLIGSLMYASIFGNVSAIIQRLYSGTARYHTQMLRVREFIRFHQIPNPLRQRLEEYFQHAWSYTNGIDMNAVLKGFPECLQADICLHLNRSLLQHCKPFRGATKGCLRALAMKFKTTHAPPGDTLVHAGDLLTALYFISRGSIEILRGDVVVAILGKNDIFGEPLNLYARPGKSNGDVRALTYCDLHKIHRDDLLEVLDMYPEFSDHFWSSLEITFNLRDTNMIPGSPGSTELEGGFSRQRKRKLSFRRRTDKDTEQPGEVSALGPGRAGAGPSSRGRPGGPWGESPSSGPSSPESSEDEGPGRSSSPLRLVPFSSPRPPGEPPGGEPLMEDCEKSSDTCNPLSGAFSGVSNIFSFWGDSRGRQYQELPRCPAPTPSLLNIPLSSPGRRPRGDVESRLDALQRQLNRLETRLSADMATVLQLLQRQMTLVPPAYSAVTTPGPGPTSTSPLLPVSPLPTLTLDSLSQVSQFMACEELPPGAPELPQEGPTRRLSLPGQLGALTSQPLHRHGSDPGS
row,SMILES,"hERG current change (%, negative = inhibition) at 1uM [%]"
1,CC(=O)Nn1c(COc2ccccc2C)nc2ccccc2c1=O,0.242
2,O=C(CNc1cc(S(=O)(=O)N2CCOCC2)ccc1NCC1CCCO1)Nc1cccc(F)c1 (stereo not drawn),8.71
3,CCOc1ccc2ncc(S(=O)(=O)c3ccccc3)c(N3CCN(c4ccc(OC)cc4)CC3)c2c1,1.95
4,COC(=O)CC1=Nc2ccccc2NC(=O)C1,17.9
5,Cc1ccc(OCc2nnc(SCC(=O)Nc3ncc(C)s3)o2)cc1,9.37
6,Cn1ccnc1Sc1nc2c(c(=O)n(C)c(=O)n2C)n1C,5.82
7,CS(=O)(=O)NCc1ccc(C(=O)NCCOc2ccccc2)cc1,1.82
8,CCn1c(O)c(N=NC(=O)c2ccc(CSc3nncn3C)cc2)c2ccccc21,13.3
9,O=C(NCC(c1ccco1)N1CCN(c2ccccc2F)CC1)C(=O)NC1CC1 (stereo not drawn),5.07
10,CC(C)(c1ccccc1)c1ccc(OCC(O)CNC2CCN(Cc3ccccc3)CC2)cc1.O=C(O)C(=O)O (stereo not drawn),10.8
11,CC1CCN(S(=O)(=O)c2ccc(NC(=O)Cc3ccccc3)cc2)CC1,11.6
12,Cc1cccc(N=N/C(=C\O)C(=O)c2cccs2)c1,4.53
13,C=CCn1c(-c2sc(-c3ccccc3)nc2C)n[nH]c1=S,8.31
14,O=C(CNC(=O)c1ccccc1)OCc1cccc(Br)c1,2.81
15,CCOc1ccc(-c2nnc(N3CCCCC3)c3ccccc23)cc1,8.06
16,COc1ccc(/C=N/NC(=O)c2[nH]c3ccc(Br)cc3c2-c2ccccc2)c(C(=O)O)c1OC,5.03
17,CN1C(=O)C2(OCC(CO)([N+](=O)[O-])CO2)c2ccccc21 (stereo not drawn),11.1
18,CC1(C)C(C(=O)N2CCN(C(=O)c3ccccc3)CC2)C1(C)C,8.64
19,CCSc1nnc(NC(=O)c2cccnc2Cl)s1,7.17

row,SMILES,"hERG current change (%, negative = inhibition) at 1uM [%]"
1,C=CCn1c(CNS(=O)(=O)c2ccc(Cl)cc2)n[nH]c1=S,6.06
2,C=CCOC(=O)C(C#N)c1nc2ccccc2nc1N1CCN(Cc2ccccc2)CC1 (stereo not drawn),-21.7
3,O=C(CN1CCCCCC1)Nc1ccc(Br)cc1Br,9.18
4,COc1ccc(NC(=O)c2cc(-c3ccccc3O)n[nH]2)cc1Cl,18.1
5,Cc1ccc(C(=O)NCCSc2c(C)[nH]c3ccccc23)cc1[N+](=O)[O-],10.5
6,O=C(O)/C=C/C(=O)N1CCN(c2ccccc2F)CC1,8.26
7,COc1cc(S(=O)(=O)NCC(c2ccco2)N2CCCCC2)ccc1NC(C)=O.Cl (stereo not drawn),5.43
8,C=CCn1c(Sc2nnc(C)s2)nc2c1c(=O)[nH]c(=O)n2C,11
9,Cn1c(-n2c(-c3ccco3)nc3ccccc3c2=O)nc2ccccc21,16.4
10,CCC(=O)Nc1ccc(N2CCN(C(=O)c3ccccc3C)CC2)cc1,4.68
11,O=C(O)C1CCc2sc3[nH]c(=S)n(-c4ccccc4)c(=O)c3c21 (stereo not drawn),13.7
12,O=C(NCc1ccccc1CN1CCCC1)c1cc2cc(Cl)ccc2o1,-7.54
13,COc1ccc(-n2c3c(cc(C(=O)Nc4ccc(C)cc4)c2=O)C(=O)CCC3)cc1,-2.91
14,O=c1c2ccccc2c(C=NCCc2ccccc2)c(O)n1Cc1ccccc1,8.59
15,Cc1ccc(CNC(=O)C2COc3ccccc3O2)cc1 (stereo not drawn),8.38
16,COc1ccc(C(=O)NC2CCN(S(=O)(=O)c3ccc(F)cc3)CC2)cc1,11.9
17,Cc1cccc(C(=O)N2CCCC(N3CCN(c4ccccc4F)CC3)C2)n1 (stereo not drawn),8.48
18,CCOC(=O)C(C)Sc1nnc2n1C(C)(C)Cc1ccccc1-2 (stereo not drawn),1.07
19,CCN1CCN(Cc2nc3c(c(=O)n(C)c(=O)n3C)n2CC(=O)c2ccccc2)CC1,15.7

row,SMILES,"hERG current change (%, negative = inhibition) at 1uM [%]"
1,CN1CCC(=NNC(=O)C(=O)NCc2ccccc2)CC1,4.35
2,CCN(CC)S(=O)(=O)c1ccc(C(=O)N2CCc3ccccc32)cc1,7.93
3,O=C(Nc1cnn(C23CC4CC(CC(C4)C2)C3)c1)c1cc(-c2ccccc2)on1,5.24
4,COc1cccc(N/C=C/C(=O)c2ccc(Cl)cc2)c1,9.03
5,COc1ccc(CNC(=O)CSc2ncnc3ccccc23)cc1OC,5.26
6,Cc1cccnc1NC(=O)c1c(O)c2cccc3c2n(c1=O)CCC3,12.4
7,COc1ccc(OC)c(C2C(C(=O)c3ccc(C)o3)=C(O)C(=O)N2c2cc(C)on2)c1 (stereo not drawn),10.8
8,COc1ccc(-c2cc(C(F)(F)F)n3ncc(C(=O)N(C)Cc4ccccc4)c3n2)cc1,10.1
9,Clc1ccc(Oc2nc(N3CCOCC3)nc(N3CCOCC3)n2)cc1,-0.674
10,Cn1c(=O)oc2cc(S(=O)(=O)Nc3ccc4c(c3)OCCO4)ccc21,11.1
11,CC(=O)N1c2ccccc2Oc2cc3ccccc3cc21,8.67
12,CC(NC(=O)CCC(=O)N1CCN(S(=O)(=O)c2ccc(Cl)cc2)CC1)c1ccccc1 (stereo not drawn),-4.09
13,COc1cccc(-c2cc(C(=O)NCC3CCCO3)c3ccccc3n2)c1 (stereo not drawn),9.71
14,O=C(NCc1cccnc1)c1ccc(=O)oc1,-1.38
15,COc1ccc(NC(=O)CSc2nc(=O)n(CCN(C)C)c3c2CCCC3)cc1OC,11.7
16,CCOC(=O)Cc1csc(SCC(=O)Nc2cccc(C#N)c2)n1,12.2
17,Cc1ccc(NC(=O)OCc2cncs2)cc1,9.49
18,CSc1cccc(CN2CCC(CO)(Cc3ccccc3)CC2)c1,-1.47
19,O=C(CCc1nnc(Cc2ccc(-c3ccccc3)cc2)o1)NCC1CC1,6.1
